Results from PubChem BioAssay AID624417 (National Center for Advancing Translational Sciences (NCATS), 2012).
The campaign covered roughly 410,000 compounds. About 6,400 (1.6%) were called active. The inconclusive results got no clear call from the source; some entries with a clear call stand among them for comparison. Calls come from the whole dose curve; as a rule, active = well fitted inhibition curve with a large enough effect; inconclusive = small, poorly fitted or top-dose-only effect; inactive = no such curve, though single readings can be large or run the other way. Potencies of inconclusive entries are left out as doubtful fits.

These molecules were tested against Glucagon-like peptide 1 receptor (Homo sapiens) (UniProt P43220) (assay: qHTS of GLP-1 Receptor Inverse Agonists (Inhibition Mode)). Settings: HEK293 GLP-1R CRE-luciferase, luminescence, 24 h, GLP-1R form is constitutively active; series mostly up to 38.3 µM.
UniProt P43220, sequence (P43220 whole entry, looked up): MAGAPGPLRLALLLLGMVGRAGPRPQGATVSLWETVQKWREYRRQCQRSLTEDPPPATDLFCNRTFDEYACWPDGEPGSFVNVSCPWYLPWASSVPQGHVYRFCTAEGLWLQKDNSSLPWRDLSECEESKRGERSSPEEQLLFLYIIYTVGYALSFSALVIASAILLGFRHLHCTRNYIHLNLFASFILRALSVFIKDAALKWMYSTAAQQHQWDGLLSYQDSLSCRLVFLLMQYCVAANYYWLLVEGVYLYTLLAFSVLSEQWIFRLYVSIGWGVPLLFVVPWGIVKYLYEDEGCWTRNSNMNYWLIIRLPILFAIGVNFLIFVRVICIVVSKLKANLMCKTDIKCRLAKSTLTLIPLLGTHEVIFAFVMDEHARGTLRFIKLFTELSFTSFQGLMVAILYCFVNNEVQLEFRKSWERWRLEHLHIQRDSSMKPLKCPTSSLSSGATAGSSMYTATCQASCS
In short: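 qHTS in 1536-well format: reporter HEK293 cells expressing constitutive GLP-1R activity in DMEM + 10% Nu serum, 24 hr with compounds at 37 deg C, luminescence read after 12 min with detection reagent.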
Note: nearly all actives have a fitted effect of over 55% in size.
Potency is the fitted concentration of half-maximal effect; tags give direction and shape of the fitted curve.

| SMILES | Potency |
| --- | --- |
| COC(=O)c1[nH]c2cc(C)ccc2c1NC(=O)CN1CCOCC1 | inactive |
| O=c1c(N2CCN(c3cccc(C(F)(F)F)c3)CC2)csc2ccc(Cl)cc12 | inconclusive [inhibitor, partial curve, poor fit] |
| COc1ccc(C(=O)N/N=C/c2ccc(OC)c(COc3ccc(F)cc3)c2)cc1 | active: 10 µM |
| COc1ccc(OC)c(CCNC(=O)c2cnn(-c3ccccc3)c2C2CCN(C(=O)OC(C)(C)C)CC2)c1 | inconclusive [inhibitor, single point] |
| CCN(CC)C1CC(=O)N(c2ccc(Br)cc2)C1=O (configuration not stated) | inactive |
| COc1ccc(-c2cn3nc(N4CCCC(C(=O)NCc5ccccc5Cl)C4)sc3n2)cc1 (configuration not stated) | inconclusive [inhibitor, single point] |
| Cc1cc(C)nc(SCC(=O)Nc2nc(-c3ccccc3)c(-c3ccccc3)o2)n1 | inconclusive [inhibitor, partial curve, poor fit] |
| COc1ccc(N(C)S(=O)(=O)c2cccc(C(=O)N3CCN(c4ccccc4)CC3)c2)cc1 | inconclusive [inhibitor, single point] |
| COc1ccc(N2CCN(Cc3nc4ccccc4n3C)CC2)cc1 | inactive |
| Cc1[nH]c2ccccc2c1/C=C(\C#N)S(=O)(=O)c1ccccc1 | inconclusive [inhibitor, single point] |
| Cc1c(C(=O)OCCOC(C)C)[nH]c2c1C(=O)CC(C)(C)C2 | inconclusive [inhibitor, partial curve, poor fit] |
| CC(C)Cn1cc(NC(=O)N2CCN(c3ccccc3F)CC2)c2ccccc2c1=O | inactive |
| CCOC(=O)C1CCCCN1C(=O)c1oc2c(Cl)cc(C)cc2c1C (configuration not stated) | inconclusive [inhibitor, single point] |
| CC(=O)C1=C(O)C=C(c2ccco2)CC1c1ccco1 (configuration not stated) | inconclusive [inhibitor, single point] |
| N/C(=N\OC(=O)COc1ccc2ccccc2c1Br)c1ccccn1 | inconclusive [inhibitor, single point] |
| C[N+](C)(C)CCN(Cc1ccc(Cl)cc1)c1ccccn1 | inactive |
| OCCN(CC(O)COc1ccccc1)CC(O)Cn1ccc2ccccc21 (configuration not stated) | inconclusive [inhibitor, single point] |
| O=C(NCC(c1ccco1)N1CCN(c2ccccc2)CC1)C(=O)NC1CCCCC1 (configuration not stated) | inactive |
| COC(=O)c1[nH]c2cc(OC)c(OC)cc2c1NC(=O)Oc1ccccc1 | inactive |
| C/C=C(/C)C(=O)O[C@@H]1c2cc3c(c4c2[C@@]2(CO4)C(=O)C(OC)=C(OC)C=C2C[C@@H](C)[C@H]1C)OCO3 | inconclusive [inhibitor, single point] |
| COc1ccc(-c2cc(C(F)(F)F)nc(SCC(=O)Nc3cc(C)on3)n2)cc1 | inactive |
| CCN(CC)c1ccc(C(NC(=O)C(C)C)c2ccc3cccnc3c2O)cc1 (configuration not stated) | inconclusive [inhibitor, full curve, poor fit] |
| NC(Cc1ccc(C(F)(F)F)cc1)c1csc(NC(=O)Nc2ccccc2)n1 (configuration not stated) | inconclusive [inhibitor, single point] |

| SMILES | Potency |
| --- | --- |
| O=C1[C@@H]2Cc3ccccc3CN2C(=O)N1c1cccc(F)c1 | inactive |
| CCOC(=O)CC(NC(=O)N1CCC(CN2CCC(C)CC2)CC1)c1ccccc1 (configuration not stated) | inactive |
| CCOC(=O)CNC(=S)N(Cc1cccs1)C1CCCC1 | inconclusive [inhibitor, partial curve, poor fit] |
| O=C(CSc1nc2ccccc2s1)CSc1nc2ccccc2s1 | inactive |
| O=C(Nc1ccc(S(=O)(=O)N2CCCCC2)cc1)C1CCN(C(=O)c2ccc(F)cc2)CC1 | inconclusive [inhibitor, single point] |
| CCCCN(CC)Cc1ccc(CNC(=O)Nc2ccccc2)o1 | inconclusive [inhibitor, single point] |
| COc1ccc(/C=C2/SC(=S)N(n3c(C)ccc3C)C2=O)cc1 | inconclusive [inhibitor, partial curve, poor fit] |
| Nc1c(Cl)ncnc1N/N=C/c1ccc2ccccc2n1 | inconclusive [inhibitor, full curve, poor fit] |
| C[C@H]1CN([C@@H](C)CO)C(=O)Cc2cc(NC(=O)CCN3CCOCC3)ccc2O[C@@H]1CN(C)Cc1ccc(Oc2ccccc2)cc1 | inconclusive [inhibitor, single point] |
| CC(C)C(=O)NC(c1ccccc1)c1cc([N+](=O)[O-])c2cccnc2c1O (configuration not stated) | inconclusive [inhibitor, single point] |
| COC(=O)c1c(-c2ccc(Cl)cc2)noc1N1CCN(c2cccc(C(F)(F)F)c2)CC1 | inactive |
| CCc1cc(C(=O)Nc2ccc(C)cc2Br)cs1 | inconclusive [inhibitor, single point] |
| CN1CCN(c2nc(-c3ccccc3Cl)nc3ccccc23)CC1 | inconclusive [inhibitor, single point] |
| CC(CCN1C(Nc2ccccc2)=NC[C@@H]1Cc1ccccc1)c1ccccc1 (some centres not stated) | inconclusive [inhibitor, single point] |
| CCc1ccc(CN(C(=O)c2oc3ccccc3c2C)C2CCS(=O)(=O)C2)cc1 (configuration not stated) | inconclusive [inhibitor, single point] |
| CCCCCCCC1=NN(c2ccc(S(=O)(=O)O)cc2)C(=O)C1N=O (configuration not stated) | inactive |
| Cc1ccc(S(=O)(=O)NC(=O)COc2cc(C)ccc2C(C)C)cc1 | inconclusive [inhibitor, partial curve, poor fit] |
| C=CCn1c(SCC(=O)NC(=O)NC2CCCC2)nnc1C1CCCCC1 | inconclusive [inhibitor, full curve, poor fit] |
| O=C(N/N=C/c1ccccn1)c1sc2ccccc2c1Cl | inconclusive [inhibitor, full curve, poor fit] |
| COc1ccc(-c2ccc(CN3C(C(C)C)C(=O)N(Cc4cn(Cc5ccco5)nn4)CCS3(=O)=O)cc2)cc1 (configuration not stated) | inconclusive [inhibitor, partial curve, poor fit] |
| COC(=O)[C@H]1[C@H]2C[C@H]3c4[nH]c5ccccc5c4CCN3C[C@@H]2CC[C@@H]1O | inactive |
| CCOC(=O)[C@]12CCCC=C1N(CCc1ccc(OC)c(OC)c1)C(=O)[C@H](CC(=O)N1CCSCC1)C2 | inactive |
| COC(=O)c1ccc(C(=O)OC)c(NC(=O)COC(=O)C2CCC(C(C)(C)C)CC2)c1 (configuration not stated) | inactive |

| SMILES | Potency |
| --- | --- |
| Cc1cc(N/C(=N/S(=O)(=O)c2ccc(F)cc2)c2ccccc2)n(-c2ccccc2)n1 | inconclusive [inhibitor, partial curve, poor fit] |
| C1CCCCCC(NCCN2CCNCC2)CCCCC1 | active: 6.31 µM |
| O=C(CCOc1ccccc1)N1CCCC(Nc2ccccc2)C1 (configuration not stated) | inconclusive [inhibitor, partial curve, poor fit] |
| COc1ccc2c(c1OC)C(=O)OC2C1c2c(cc3c(c2OC)OCO3)CCN1C (configuration not stated) | inconclusive [inhibitor, single point] |
| Cc1ccc(C)c(N2CN(CCC3=CCCCC3)CNC2=S)c1 | inconclusive [inhibitor, partial curve, poor fit] |
| COc1ccc(N=c2scc(-c3ccc(OC)cc3)n2CCO)cc1 | inconclusive [inhibitor, partial curve, poor fit] |
| Cc1ccc(Nc2nc(N)nc(CN3CCc4ccccc4C3)n2)cc1 | inconclusive [inhibitor, single point] |
| CC(=O)Nc1sc2c(c1CN1CCCC1)CCCC2 | inactive |
| CCN(CC)c1ccc(/C=C2\C(=O)N(c3nnc(C)c(=O)[nH]3)N=C2C)cc1 | inconclusive [inhibitor, partial curve, poor fit] |
| C=C(C)CSC1=C(C#N)C(c2ccccc2Cl)CC(=O)N1 (configuration not stated) | inconclusive [inhibitor, single point] |
| CCOc1cc(CNc2ccc3c(c2)OCCO3)cc(Br)c1OCC | active: 2.24 µM |
| CN1CCN(C(c2ccccn2)c2cc(Cl)c3cccnc3c2O)CC1 (configuration not stated) | inconclusive [inhibitor, partial curve, poor fit] |
| CCCCN(C)C(=O)C1CCC(CNS(=O)(=O)c2ccc(Cl)cc2)CC1 (configuration not stated) | inconclusive [inhibitor, single point] |
| COc1nc(Nc2ccc(O)cc2)nc(OC(C(F)(F)F)C(F)(F)F)n1 | inconclusive [inhibitor, single point] |
| CCOC(=O)c1c2c(c(=S)n(-c3ccccc3)c1N)CCC2 | inconclusive [inhibitor, single point] |
| COC(Cc1n[nH]c(=S)n1-c1ccc(Cl)cc1)OC | inactive |
| O=C(NCc1ccc(Cl)c(Cl)c1)c1cc(C2CCCCN2C(=O)OCCF)on1 (configuration not stated) | inconclusive [inhibitor, partial curve, poor fit] |
| O=C1[C@H](Cc2ccccc2)NCC=CC[C@@H](c2ccc(Cl)cc2)N1Cc1ccc(Cl)cc1 | inconclusive [inhibitor, single point] |
| CC(C)NCCOCCSc1ccc(Cl)cc1 | active: 12.6 µM |
| Cc1cc(SCC(=O)NCCC2=CCCCC2)nc2ccccc12 | inactive |
| CCc1noc(-c2ccc(N3CCCCC3C)c([N+](=O)[O-])c2)n1 (configuration not stated) | inconclusive [inhibitor, single point] |
